# From the supplement of paper PMC8728848
# This is one part of the list.
# B1: rEtpA (Escherichia coli) (protein)
# chain: MNRIYKLKFDKRRNELVVVSEITTGVGNAKATGSVEGEKSPRRGVRAMALSLLSGMMIMAHPAMSANLPTGGQIVAGSGSIQTPSGNQMNIHQNSQNMVANWNSFDIGKGNTVQFDQPSSSAVALNRVVGGGESQIMGNLKANGQVFLVNPNGVLFGEGASVSTSGFVASTRDIKNDDFMNRRYTFSGGQKAGAAIVNQGELTTNAGGYIVLAADRVSNSGTIRTPGGKTVLAASERITLQLDNGGLMSVQVTGDVVNALVENRGLVSARDGQVYLTALGRGMLMNTVLNVSGVVEASGMHRQDGNIVLDGGDSGVVHLSGTLQADNASGQGGKVVVQGKNILLDKGSNITATGGQGGGEVYVGGGWQGKDSNIRNADKVVMQGGARIDVSATQQGNGGTAVLWSDSYTNFHGQISAKGGETGGNGGRVETSSHGNLQAFGTVSASAKKGKAGNWLLDSADITIVNGSNVSKTETTQSPPHTQFAPTAAGSAVSNTSINNRLNNGTSVTILTHRTRTGTAQGGNITVNAAINKSNGSDVNLTLQAGGNITVNNSITSTEGKLNVNLSGARTSNGSITISNNANITTNGGDITVGTTNTSNRVNISINNTTLNASNGNIQLTGTGTDSGILFAGNNRLTASNIALTGNSTSGNAINLTGTATLNATNNITLTGSSTSGNAINLKGNNTLTASNITLTGESTSGNAINLTDTTGTTTLNATNNITMQGTRVQIKHSNITAGNFALNATVAGSEISNTTLTATNNINLAAKTNSASSGVYLKDARITSTNGSITANGTATANGKATHLDGNVTLNASNGRIKLTGNGHGSASGILFAGNNRLTASNIALTGNSTSGNAINLTGTATLNATNDITLTGSSTSGNAINLTGTATLNATNNITLTGSSTSGNAINLKGNNTLTASNITLTGESTSGNAINLTDTTGTTTLNATNNITMQGTRVQIKHSNITAGNFALNATVAGSEISNTTLTATNNINLAAKTNSASSGVYLKDARITSTNGSITANGTATANGKATHLDGNVTLNASNGRIKLTGNGHGSASGILFAGNNRLTASNIALTGNSTSGNAINLTGTATLNATNDITLTGSSTSGNAINLTGTATLNATNNITLTGSSTSGNAINLKGNNTLTASNITLTGESTSGNAINLTDTTGTTTLNATNNITMQGTRVQIKHSNITAGNFALNATVAGSEISNTTLTATNNINLAAKTNSASSGVYLKDARITSTNGSITANGTATANGKATHLDGNVTLNASNGRIKLTGNGHGSASGILFAGNNRLTASNIALTGNSTSGNAINLTGTATLNATNDITLTGSSTSGNAINLTGTATLNATNNITLTGSSTSGNAINLKGNNTLTASNITLTGESTSGNAINLTDTTGTTTLNATNNITMQGTRVQIKHSNITAGNFALNATVAGSEISNTTLTATNNINLAAKTNSASSGVYLKDARITSTNGSITTNGTATANGKATHLDGNVTLNASNGRIKLTGNGHGSASGILFAGNNRLTASNIALTGNSTSGNAINLTGTATLNATNDITLTGSSTSGNAINLTGTATLNATNNITLTGSSTSGNAINLKGNNTLTASNITLTGESTSGNAINLTDTTGTTTLNATNNITMQGTRVQIKHSNITAGNFALNATVAGSEISNTTLTATNNINLAAKTNSASSGVYLKDARITSTNGSITANGTAPANDNATYLDGNVTLNASNGSIKLTGNGNGSTSGILFAGNNTLTASNITLTGNSEVYWQKLGPEQKLISEEDLNSAVDHHHHHH
# Assays:
# Assay in all cases: glycan array binding signal (z-score within array); higher = stronger binding
# Settings in all cases: glycan notation: IUPAC condensed, linker removed
# [1] = target: Fuc(a1-2)Gal
# Outline: (§1)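 The Consortium for Functional Glycomics database supplied 3228 glycan arrays, of which those lacking an available protein sequence were dropped. The binding signal, a within-array Z-score, was averaged across arrays of the same protein sequence and across linkers. Negative scores can be read as non-binding.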
# [2] = target: Fuc(a1-2)Gal(b1-3)GalNAc
# Outline: as §1
# [3] = target: Fuc(a1-2)Gal(b1-3)GalNAc(a1-3)[Fuc(a1-2)]Gal(b1-4)Glc
# Outline: as §1
# [4] = target: Fuc(a1-2)Gal(b1-3)GalNAc(a1-3)[Fuc(a1-2)]Gal(b1-4)GlcNAc
# Outline: as §1
# [5] = target: Fuc(a1-2)Gal(b1-3)GalNAc(b1-3)Gal
# Outline: as §1
# [6] = target: Fuc(a1-2)Gal(b1-3)GalNAc(b1-3)Gal(a1-4)Gal(b1-4)Glc
# Outline: as §1
# [7] = target: Fuc(a1-2)Gal(b1-3)GalNAc(b1-4)[Neu5Ac(a2-3)]Gal(b1-4)Glc
# Outline: as §1
# [8] = target: Fuc(a1-2)Gal(b1-3)GlcNAc
# Outline: as §1
# [9] = target: Fuc(a1-2)Gal(b1-3)GlcNAc(b1-2)Man(a1-3)[Fuc(a1-2)Gal(b1-3)GlcNAc(b1-2)Man(a1-6)]Man(b1-4)GlcNAc(b1-4)GlcNAc
# Outline: as §1
# [10] = target: Fuc(a1-2)Gal(b1-3)GlcNAc(b1-2)Man(a1-3)[Fuc(a1-2)Gal(b1-3)GlcNAc(b1-2)Man(a1-6)]Man(b1-4)GlcNAc(b1-4)[Fuc(a1-6)]GlcNAc
# Outline: as §1
# [11] = target: Fuc(a1-2)Gal(b1-3)GlcNAc(b1-3)Gal(b1-4)Glc
# Outline: as §1
# [12] = target: Fuc(a1-2)Gal(b1-3)GlcNAc(b1-3)GalNAc
# Outline: as §1
# [13] = target: Fuc(a1-2)Gal(b1-3)GlcNAc(b1-3)[Fuc(a1-2)Gal(b1-3)GlcNAc(b1-6)]GalNAc
# Outline: as §1
# [14] = target: Fuc(a1-2)Gal(b1-3)GlcNAc(b1-3)[Gal(b1-4)GlcNAc(b1-6)]Gal(b1-4)Glc
# Outline: as §1
# [15] = target: Fuc(a1-2)Gal(b1-3)GlcNAc(b1-3)[Neu5Ac(a2-6)Gal(b1-4)GlcNAc(b1-6)]Gal(b1-4)Glc
# Outline: as §1
# [16] = target: Fuc(a1-2)Gal(b1-3)GlcNAc6S
# Outline: as §1
# [17] = target: Fuc(a1-2)Gal(b1-3)[Fuc(a1-4)]GlcNAc
# Outline: as §1
# [18] = target: Fuc(a1-2)Gal(b1-3)[Fuc(a1-4)]GlcNAc(b1-2)Man(a1-3)[Fuc(a1-2)Gal(b1-3)[Fuc(a1-4)]GlcNAc(b1-2)Man(a1-3)]Man(b1-4)GlcNAc(b1-4)GlcNAc
# Outline: as §1
# [19] = target: Fuc(a1-2)Gal(b1-3)[Fuc(a1-4)]GlcNAc(b1-2)Man(a1-3)[Fuc(a1-2)Gal(b1-3)[Fuc(a1-4)]GlcNAc(b1-2)Man(a1-6)]Man(b1-4)GlcNAc(b1-4)[Fuc(a1-6)]GlcNAc(b1-4)[Fuc(a1-6)]GlcNAc
# Outline: as §1
# [20] = target: Fuc(a1-2)Gal(b1-3)[Fuc(a1-4)]GlcNAc(b1-3)[Fuc(a1-3)[Gal(b1-4)]GlcNAc(b1-6)]Gal(b1-4)Glc
# Outline: as §1
# [21] = target: Fuc(a1-2)Gal(b1-3)[Fuc(a1-4)]GlcNAc(b1-3)[Gal(b1-4)GlcNAc(b1-6)]Gal(b1-4)Glc
# Outline: as §1
# [22] = target: Fuc(a1-2)Gal(b1-4)Glc
# Outline: as §1
# [23] = target: Fuc(a1-2)Gal(b1-4)Glc6S
# Outline: as §1
# [24] = target: Fuc(a1-2)Gal(b1-4)GlcNAc
# Outline: as §1
# [25] = target: Fuc(a1-2)Gal(b1-4)GlcNAc(b1-2)Man
# Outline: as §1
# [26] = target: Fuc(a1-2)Gal(b1-4)GlcNAc(b1-2)Man(a1-3)[Fuc(a1-2)Gal(b1-4)GlcNAc(b1-2)Man(a1-6)]Man(b1-4)GlcNAc(b1-4)GlcNAc
# Outline: as §1
# [27] = target: Fuc(a1-2)Gal(b1-4)GlcNAc(b1-2)Man(a1-3)[Fuc(a1-2)Gal(b1-4)GlcNAc(b1-2)Man(a1-6)]Man(b1-4)GlcNAc(b1-4)[Fuc(a1-6)]GlcNAc
# Outline: as §1
# [28] = target: Fuc(a1-2)Gal(b1-4)GlcNAc(b1-2)[Fuc(a1-2)Gal(b1-4)GlcNAc(b1-4)]Man(a1-3)[Fuc(a1-2)Gal(b1-4)GlcNAc(b1-2)Man(a1-6)]Man(b1-4)GlcNAc(b1-4)GlcNAc
# Outline: as §1
# [29] = target: Fuc(a1-2)Gal(b1-4)GlcNAc(b1-3)Gal(b1-4)GlcNAc
# Outline: as §1
# [30] = target: Fuc(a1-2)Gal(b1-4)GlcNAc(b1-3)Gal(b1-4)GlcNAc(b1-2)Man(a1-3)[Fuc(a1-2)Gal(b1-4)GlcNAc(b1-3)Gal(b1-4)GlcNAc(b1-2)Man(a1-6)]Man(b1-4)GlcNAc(b1-4)GlcNAc
# Outline: as §1
binder,measurement,setting,value
B1,glycan array binding signal (z-score),[1],-0.235
same,glycan array binding signal (z-score),[2],-0.3
same,glycan array binding signal (z-score),[3],-0.246
same,glycan array binding signal (z-score),[4],-0.356
same,glycan array binding signal (z-score),[5],-0.115
same,glycan array binding signal (z-score),[6],-0.343
same,glycan array binding signal (z-score),[7],-0.085
same,glycan array binding signal (z-score),[8],0.222
same,glycan array binding signal (z-score),[9],0.038
same,glycan array binding signal (z-score),[10],0.335
same,glycan array binding signal (z-score),[11],-0.419
same,glycan array binding signal (z-score),[12],-0.417
same,glycan array binding signal (z-score),[13],-0.424
same,glycan array binding signal (z-score),[14],-0.058
same,glycan array binding signal (z-score),[15],-0.391
same,glycan array binding signal (z-score),[16],-0.279
same,glycan array binding signal (z-score),[17],-0.19
same,glycan array binding signal (z-score),[18],0.758
same,glycan array binding signal (z-score),[19],0.292
same,glycan array binding signal (z-score),[20],-0.388
same,glycan array binding signal (z-score),[21],-0.339
same,glycan array binding signal (z-score),[22],-0.231
same,glycan array binding signal (z-score),[23],-0.171
same,glycan array binding signal (z-score),[24],-0.294
same,glycan array binding signal (z-score),[25],-0.239
same,glycan array binding signal (z-score),[26],1.13
same,glycan array binding signal (z-score),[27],-0.021
same,glycan array binding signal (z-score),[28],0.456
same,glycan array binding signal (z-score),[29],-0.393
same,glycan array binding signal (z-score),[30],-0.364
